The values below come from patent US20120005782A1 (University of California, published 2012).

This experiment has as its target T1, human α1-antitrypsin (authentic human AAT standard, Calbiochem) (human, UniProt P01009).
T1 construct: Commercial human AAT used as the standard in all assays; also called hAAT; human AAT control
As to the kind of experiment: band shift assay: human AAT standard incubated with PPE, SDS-PAGE, anti-AAT immunoblot (FIG. 4B). How it is done:
Proteins were denatured by boiling 40 μl supernatant samples for five minutes in 10 μl sodium dodecyl sulfate (SDS) sample buffer resulting in a final buffer concentration of 0.4% (vol/vol) SDS, 62.5 mM Tris-HCl (pH 8.2), 10% glycerol, 5 mM EDTA and 0.01% (wt/vol) bromophenol blue. A 15 μl aliquot of each denatured sample was fractionated by sodium dodecyl sulfate-polyacrylamide gel electrophoresis (SDS-PAGE) on 12% Tris-HCl precast gels (BioRad) carried out in a Mini-PROTEAN 3 electrophoresis cell (BioRad) for 35 min at 200 V. Proteins were then blotted onto 0.45 μm nitrocellulose membranes (GE Osmonics, Minnetonka, Minn.) for 85 min at 120 V using an electroblot Mini Trans-Blot transfer cell (BioRad). Immunoblot analysis was then performed according to the procedure described elsewhere (Huang et al., 2001) with the only alteration being the vendor of the secondary antibody used in this study (Southern Biotechnology, Birmingham, Ala.). Chemiluminescence detection was used for the CMV CP immunoblot. Human AAT (Calbiochem, La Jolla, Calif.) was used as the standard for all assays performed.
Formation of a covalent complex between AAT and porcine pancreatic elastase (PPE) (Wilczynska et al., 1997) was examined by visual inspection of functional AAT by immunoblot analysis. […] The complex was then analyzed using the same immunoblot analysis previously described.
(Immunoblotting shows a protein as a band on a membrane.)

B1: porcine pancreatic elastase (PPE) (enzyme, UniProt P00772 27-266, looked up)
chain: VVGGTEAQRNSWPSQISLQYRSGSSWAHTCGGTLIRQNWVMTAAHCVDRELTFRVVVGEHNLNQNDGTEQYVGVQKIVVHPYWNTDDVAAGYDIALLRLAQSVTLNSYVQLGVLPRAGTILANNSPCYITGWGLTRTNGQLAQTLQQAYLPTVDYAICSSSSYWGSTVKNSMVCAGGDGVRSGCQGDSGGPLHCLVNGQYAVHGVTSFVSRLGCNVTRKPTVFTRVSAYISWINNVIASN
notes: Commercial enzyme; forms a covalent complex with functional AAT in the band shift assay
As to B1, the binding result is “binds”.
